Over roughly 110,000 compounds, “z-score” has its median near -0.1; the highest 2% begin near 2. The list shows a part of the results. Active and inactive are the calls of the source.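 How the source made its calls: active means z-score in the third read window above 3 or below -3; inactive means the rest.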

The values below come from PubChem BioAssay AID488969 (Vanderbilt High Throughput Screening Facility, 2010).

The assay deals with Metabotropic glutamate receptor 8 (Rattus norvegicus) (UniProt P70579). In words: mGluR8 Gi/Go-coupled signaling modulation – cell-based, rat, thallium flux, HTS, primary screen (AID 488969). The settings on record: HEK293 rat mGluR8, GIRK (G protein-gated inwardly rectifying potassium channel) thallium flux, FluoZin2; at 10 µM; stronger effect = higher value; submaximal glutamate (EC20) added with thallium.
Chain of UniProt P70579 (P70579 whole entry, looked up): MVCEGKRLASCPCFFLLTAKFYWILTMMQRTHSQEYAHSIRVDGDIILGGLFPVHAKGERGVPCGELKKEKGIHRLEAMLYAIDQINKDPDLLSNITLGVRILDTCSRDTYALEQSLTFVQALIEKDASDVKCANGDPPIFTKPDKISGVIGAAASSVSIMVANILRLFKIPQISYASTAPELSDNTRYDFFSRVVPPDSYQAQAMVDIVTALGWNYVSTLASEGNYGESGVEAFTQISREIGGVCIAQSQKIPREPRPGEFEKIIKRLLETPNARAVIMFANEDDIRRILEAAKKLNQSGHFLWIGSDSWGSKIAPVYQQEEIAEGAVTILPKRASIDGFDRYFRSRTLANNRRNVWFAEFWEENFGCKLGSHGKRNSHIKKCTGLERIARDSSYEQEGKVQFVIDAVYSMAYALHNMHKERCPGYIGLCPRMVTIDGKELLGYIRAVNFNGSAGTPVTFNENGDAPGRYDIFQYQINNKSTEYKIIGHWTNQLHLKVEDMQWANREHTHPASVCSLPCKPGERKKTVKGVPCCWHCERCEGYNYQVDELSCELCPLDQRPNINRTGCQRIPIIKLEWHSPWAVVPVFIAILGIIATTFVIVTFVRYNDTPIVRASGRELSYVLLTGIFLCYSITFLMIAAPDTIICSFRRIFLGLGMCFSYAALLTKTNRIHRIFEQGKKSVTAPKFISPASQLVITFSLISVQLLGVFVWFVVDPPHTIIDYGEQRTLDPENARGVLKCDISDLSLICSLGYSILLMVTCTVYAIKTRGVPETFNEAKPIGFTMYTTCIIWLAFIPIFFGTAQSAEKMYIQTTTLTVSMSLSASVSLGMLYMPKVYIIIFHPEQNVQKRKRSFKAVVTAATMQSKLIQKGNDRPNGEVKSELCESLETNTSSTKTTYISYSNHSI
With `CCCOc1ccc(N2CC(C(=O)Nc3ccccc3C(=O)NCc3ccco3)CC2=O)cc1` (configuration not stated), the z-score is -2.48.

The compound `CS(=O)(=O)N(CC(=O)Nc1ccc2c(c1)OCO2)Cc1ccc(Cl)cc1` showed a z-score of 0.287. The figure for `CC(=O)Nc1cc(C(F)(F)F)ccc1Oc1cccc(Br)c1` is -0.653; for `COc1ccccc1/C=C/C=N/NC(=O)CN1CCN(S(=O)(=O)c2ccc(C)cc2)CC1` it is -0.279; for `CCCn1nnnc1NC(=O)CSc1ccc(Cl)cc1` it is 0.464. The figure for `COc1cc(CNCCc2ccccc2F)ccc1OCc1ccc(Cl)nc1` is 0.878; for `O=C(/C=C/c1ccccc1)NC(=S)Nc1ccc(N2CCOCC2)c(Cl)c1` it is -0.103; for `O=c1c(C(c2ccccc2)c2c(O)nc3n(c2=O)CCCS3)c(O)nc2n1CCCS2` it is -0.0703. Then `Cc1ccc(OCC(O)Cn2c(=N)n(CCN3CCCCC3)c3ccccc32)cc1` (configuration not stated), with active: 4.9; and `COCCn1c(-c2cccs2)nc2c(c(=O)c3ccccc3n2C)c1=O`, with -0.58. As to `COc1ccc(C2C(C#N)=C(SCC(=O)Nc3ccc(C)cc3)NC3=C2C(=O)CC(C)(C)C3)cc1` (configuration not stated), the z-score worked out at 0.0491. The figure for `O=C(Nc1ccn(Cc2ccccc2)n1)c1cccc(Cn2cc([N+](=O)[O-])cn2)c1` is -0.557; for `COc1cc(/C=C2/S/C(=N/S(=O)(=O)c3ccccc3)NC2=O)c([N+](=O)[O-])cc1OC` it is -1.39. Then `O=C(Oc1ccc(C(=S)N2CCOCC2)cc1)c1ccc(Br)cc1`, with -0.171.

Take `O=C(Nc1cccc(F)c1)/C(=C\c1cccnc1)NC(=O)c1cccs1`: the z-score worked out at 0.873. The compound `CC1(C)CSC(=NCCc2ccccc2)N1C(=O)c1ccc(C#N)cc1` yielded a z-score of -0.484.

As for `COc1ccc(/C=N/Nc2nnc(Cc3ccc(OC)c(OC)c3)c(=O)[nH]2)cc1`, the z-score is -0.268.

`CN(C)CCNC(NC(=O)c1cccs1)C(Cl)(Cl)Cl` (configuration not stated) showed a z-score of -0.0966.

On to `C/C(=C\C(=O)O)CC(=O)O`, for which the z-score came to 0.0564. Turning to `CCOc1ccc(CCNC(=O)CSc2cc(=O)n(C)c3ccc(Cl)cc23)cc1OCC`, the z-score was -0.212. `CCOC(=O)C1=C(C)NC(=S)NC1c1cccs1` (configuration not stated): the z-score turned out to be 0.159. The figure for `C=CCN(CC=C)S(=O)(=O)c1ccc2nc(NC(=O)C3CCCO3)sc2c1` (configuration not stated) is -0.21. The figure for `CCCN1Cc2cccc(C(=O)Nc3cc(OC)cc(OC)c3)c2C1=O` is 0.264. For `Cc1ncoc1C(=O)Nc1ccc2c(c1)OCCO2`, the z-score is -0.349.

Consider `O=C(N/N=C/c1ccc(O)cc1)c1ccc(COc2cc(Cl)ccc2Cl)o1`, for which the z-score is -0.308. The figure for `CCCc1cc(=O)[nH]c(SCC(=O)N2CCC(C(=O)OCC)CC2)n1` is 0.819.

`N=c1n(CCN2CCCCC2)c2ccccc2n1CC(O)c1cccc(Br)c1` (configuration not stated) had a z-score of 0.566. `CCOC(=O)c1cnc2ccc(OCC)cc2c1N1CCN(c2ccccc2OC)CC1` gave a z-score of -0.8. `COC(=O)c1ccc(COc2cc(O)c3c(c2)OC(C)(C)CC3=O)cc1` yielded a z-score of -0.128.

`CCN(CC)C(=O)C(C)OC(=O)COc1ccc(Cl)cc1C` (configuration not stated) displayed a z-score of -0.745. `Nc1cc(S(=O)(=O)C(F)(F)F)ccc1C(=O)O` gave a z-score of 0.966. For `Cc1c(N/C=C/C(=O)c2ccc(Cl)cc2)c(=O)n(-c2ccccc2)n1C`, the z-score was -0.424. Then `O=C(N/N=C/c1ccc(-c2cccc(C(F)(F)F)c2)o1)c1ccccc1O`, with 0.304. Compound `Cc1ccn2c(C(=O)N/N=C/c3ccc(CNC(=O)C(=O)Nc4ccc(C)c(C)c4)o3)c(C)nc2c1` displayed a z-score of 0.623. Then `Cc1cccc(OCc2n[nH]c(=S)n2C2CCCCC2)c1`, with 1.58. For `Cc1ccc(CN2CCNC2=O)cc1`, the z-score was 0.0114.

On to `Cc1ccc(NCC(=O)Nc2ccc(Br)cc2)cc1F`, for which the z-score was -0.218. The compound `CCCN(CCC)CCCNC(=S)Nc1ccc2nc3n(c(=O)c2c1)CCCCC3` had a z-score of 0.0563.

Take `CSc1c(-c2ccccc2)nc2ccccc2c1C(=O)O`: the z-score was -0.543. Consider `O=C(NCc1ccco1)c1cccnc1-c1nc2ccccc2s1`, for which the z-score is -0.0281. The figure for `CCC(=O)Nc1ccc(C(=O)CSc2nnc(-c3ccc(O)cc3)n2CC2CCCO2)cc1OC` (configuration not stated) is -0.293. `Cc1nn(CC(=O)N2CCOCC2)c(C)c1[N+](=O)[O-]`: the z-score came to 0.117. Consider `O=C(CCCOc1ccccc1)N1CCc2ccccc2C1`, for which the z-score was -0.208. `CNC(=S)N1N=C(c2ccc(C)cc2)CC1c1ccc(Cl)cc1` (configuration not stated) had a z-score of 0.0666. Take `C=CCNC(=S)NNC(=O)c1cccn(Cc2cccc(Cl)c2)c1=O`: the z-score was -1.25. The compound `N#CC1=C(Nc2ccccc2)SC=C(c2ccc(Br)cc2)N=C1N1CCOCC1` yielded a z-score of 1.24.

`Cc1csc(NC(=O)CN2C(=O)C3CC=CCC3C2=O)n1` (configuration not stated) had a z-score of -0.15.

Compound `CN(C)S(=O)(=O)c1cccc(C(=O)Nc2cc(Cl)ccc2O)c1` gave a z-score of 0.0082. Then `O=C(O)CCC(=O)N1CCC(C(=O)c2cccc(Cl)c2)CC1`, with -0.304. The compound `Cc1cc(C(=O)OCC(=O)c2ccc3c(c2)NC(=O)CO3)c2ccccc2n1` had a z-score of -0.0899. For the compound `COc1ccccc1NC(=O)CSC1CC(=O)N(c2ccc3c(c2)OCO3)C1=O` (configuration not stated), the z-score was -0.403. The figure for `O=C(CSc1nnc(Nc2ccccc2)s1)NN1C(=O)NC2(CCCCC2)C1=O` is 2.14. The figure for `c1ccc(CNc2ncnc3nc[nH]c23)nc1` is -0.0174; for `S=C(NCCN1CCOCC1)N/N=C/c1ccccc1` it is 0.728; for `COc1ccc(C(C(=O)NC2CCCCC2)N(C(=O)Cc2c[nH]c3ccccc23)c2ccc(NC(C)=O)cc2)cc1OC` (configuration not stated) it is -0.0903. Turning to `CCCc1[nH][nH]c(=O)c1C(c1ccccc1)C(C#N)C#N` (configuration not stated), the z-score was -1.39. `Cc1cccc(C)c1OCC(O)CNC(C)(C)C` (configuration not stated) showed a z-score of 0.176.

The compound `COc1ccc(-c2cc(C(=O)N3CCN(c4ccccn4)CC3)c3ccccc3n2)cc1` registered a z-score of -0.597. Then `COc1ccc(C2CC(=O)CC(=O)C2n2cncn2)cc1` (configuration not stated), with 0.105; and `CCC(Oc1ccccc1)C(=O)Nc1nc2c(s1)C(=O)CC(C)(C)C2` (configuration not stated), with -0.962; and `CCN(CCCNC(=O)c1ccc(N2CCCC2=O)cc1)c1cccc(C)c1`, with -0.154. Then `Oc1ccc(Oc2ccc3c(C(F)(F)F)cc(C(F)(F)F)nc3n2)cc1`, with -1.52; and `Cc1cccc(-c2nc3c(c(SCC(N)=O)n2)CCCC3)c1`, with 0.543. The figure for `CN1CCN(c2cc3c(c4c2[nH]c2ccccc24)C(=O)CC(C)(C)C3)CC1` is -0.0891; for `COc1ccccc1NC(=O)N1CCC(c2nc3cc(C)c(C)cc3[nH]2)CC1` it is 0.249; for `CCOC(=O)Cn1c(=O)n(C2CCCC2)c(=O)c2ccccc21` it is -1.73. In the case of `Cc1ccc(C)c(N2CCN(S(=O)(=O)c3ccc4c(c3)oc(=O)n4C)CC2)c1`, the z-score turned out to be 0.548.

Take `CC(=O)c1cnc2c(-c3cccc(Br)c3)cnn2c1C`: the z-score is 0.0939. Consider `O=C(CSc1nc2cc(Cl)ccc2s1)NCc1ccc2c(c1)OCO2`, for which the z-score was -0.0385.

`CCCCn1c(SCC(=O)N2c3ccccc3Sc3ccccc32)nc2c1c(=O)n(C)c(=O)n2C` yielded a z-score of -0.313. `O=C(COC(=O)Cn1cnc2ccccc2c1=O)Nc1ccc(Cl)cc1` showed a z-score of -0.163. The figure for `c1cncc(C(c2nnnn2C2CCCC2)N2CCN(Cc3ccc4c(c3)OCO4)CC2)c1` (configuration not stated) is 0.0897; for `Cc1ccccc1OCc1nnc(SCc2cc(=O)[nH]c3ccccc23)o1` it is -0.43.

Regarding `CC1Cc2nc(SCC(=O)N3CCc4ccccc43)n(C)c(=O)c2S1` (configuration not stated), the z-score was -0.426. The figure for `CCN(C(=O)CSc1cc(-c2ccccc2)c2ccc(OC)cc2n1)C1CCS(=O)(=O)C1` (configuration not stated) is -0.108; for `COc1cccc(C(=O)COC(=O)C(C)N2C(=O)c3ccccc3C2=O)c1` (configuration not stated) it is -0.703; for `Cc1onc(-c2ccccc2Cl)c1C(=O)N(Cc1nc(-c2ccccc2)no1)C1CCCCC1` it is -0.156. Then `CCn1c(SCC(=O)Nc2nc3ccccc3s2)nnc1-c1ccc(Br)cc1`, with -0.423. In turn, `CCc1c(C)nc2cc(-c3ccc(OC)c(OC)c3)nn2c1N1CCCC1` had a z-score of -1.67.

Turning to `COC(=O)CCC(=O)Nc1nc(-c2ccccc2)cs1`, the z-score is -0.155.

As for `CCOC(=O)c1ccccc1NC(=O)CSc1nnc(COc2ccccc2)n1CC`, the z-score was active: -3.94. Regarding `O=C(NCc1ccco1)C1CCCN1C(=O)NCc1ccccc1` (configuration not stated), the z-score is 0.459. On to `O=C(Nc1cccc(C(F)(F)F)c1)Nc1ccc(N2CCCC2)c(S(=O)(=O)Nc2ccccc2Cl)c1`, for which the z-score is -0.0836. `Cc1nc2cc(NC(=O)N(C)c3ccc4ccccc4c3)ccc2o1` gave a z-score of 0.358. Then `CCOc1ccc(N/C=C/C(=O)c2ccc3ccccc3c2)c([N+](=O)[O-])c1`, with 0.0139; and `O=C1NC(c2ccccc2Cl)Nc2ccccc21` (configuration not stated), with -0.44; and `C/C(=C/C=N/Nc1nc(N2CCCCC2)nc(N2CCCCC2)n1)c1ccccc1`, with -0.421. The figure for `COc1ccc(C(C(=O)NC2CCCC2)N(CCN(C)C)C(=O)c2snc(C(N)=O)c2N)cc1` (configuration not stated) is -0.226; for `COc1ccc(/C=C(\C#N)C(=O)NCc2cccs2)cc1OC` it is -0.295; for `Cc1nc2sc(C(c3cccs3)N3CCOCC3)c(O)n2n1` (configuration not stated) it is -0.505. Then `Cn1nc(C(F)(F)F)c(C(=O)Nc2ccc(F)cc2F)c1Sc1ccc(C(F)(F)F)cc1`, with 0.101; and `CC1CCc2c(C(=O)Oc3cccc(-n4cnnn4)c3)csc2C1` (configuration not stated), with -0.416; and `CCOC(=O)Cn1cnc2sc3c(c2c1=O)CCC3`, with 0.161. `CCc1cccc(NC(=O)CCc2nc(-c3cccs3)no2)c1` displayed a z-score of 0.229. Then `Cc1ccc(S(=O)(=O)N2CC(=O)Nc3ccccc32)cc1C`, with 0.454; and `COc1ccc(C)cc1-n1c(SCC(=O)Nc2cc(C)on2)nc2sc(C)c(C)c2c1=O`, with 0.423; and `O=S(=O)(NCc1ccncc1)c1ccccc1`, with -0.594. The figure for `CC(C)C1=NN(C(=O)c2cccnc2)C(O)(C(F)(F)F)C1` (configuration not stated) is -0.418; for `Nc1ncnc2c1ncn2C1CCC(CO)C(O)C1` (configuration not stated) it is -0.256; for `CCOC(=O)CN(C(=O)CSc1nnc(C)n1-c1ccccc1)c1cccc([N+](=O)[O-])c1` it is 0.245.

Regarding `COc1ccccc1NC(=O)COc1ccc(C(F)(F)F)cc1[N+](=O)[O-]`, the z-score was active: 4.19. Then `O=S(=O)(NCCCc1ccccc1)c1ccc(Cl)cc1`, with -0.252; and `Brc1ccc(-c2nc3ncccn3c2Nc2ccc3c(c2)OCCO3)o1`, with -0.598; and `CCc1cc[n+](/C(C(=S)Nc2cccc(C)c2)=C(/[O-])c2ccc(C)c([N+](=O)[O-])c2)cc1`, with -0.334. The figure for `C=CCN=C1NN=C(c2cc(C)n(CCOC)c2C)CS1` is 0.0624; for `Cc1cc(CN2CCCCC2)oc1C(=O)O` it is -0.285. Then `Cc1ccc(NC(=O)C2CC(=O)N(c3ccc4c5c(cccc35)CC4)C2)cc1` (configuration not stated), with -0.138.
